The densities may have been worked out from excess volumes.
Experiment: xn = mol fraction of the nth substance listed
Details: 100 kPa

## CC(N)C(=O)[O-].CCCC[n+]1ccn(C)c1C + O
288.15 K, x1 = 0.811
  mass density: 1091.7 kg/m3
288.15 K, x1 = 0.8382
  mass density: 1092.1 kg/m3
288.15 K, x1 = 0.8693
  mass density: 1092.6 kg/m3
288.15 K, x1 = 0.9381
  mass density: 1093.7 kg/m3
293.15 K, x1 = 0.811
  mass density: 1088.8 kg/m3
293.15 K, x1 = 0.8382
  mass density: 1089.2 kg/m3
293.15 K, x1 = 0.8693
  mass density: 1089.7 kg/m3
293.15 K, x1 = 0.9381
  mass density: 1090.7 kg/m3
298.15 K, x1 = 0.811
  mass density: 1085.5 kg/m3
298.15 K, x1 = 0.8693
  mass density: 1086.4 kg/m3
298.15 K, x1 = 0.9058
  mass density: 1087 kg/m3
298.15 K, x1 = 0.9381
  mass density: 1087.5 kg/m3
298.15 K, x1 = 1
  mass density: 1088.3 kg/m3
303.15 K, x1 = 0.811
  mass density: 1082.6 kg/m3
303.15 K, x1 = 0.8382
  mass density: 1083 kg/m3
303.15 K, x1 = 0.9381
  mass density: 1084.5 kg/m3
303.15 K, x1 = 1
  mass density: 1085.2 kg/m3
308.15 K, x1 = 0.811
  mass density: 1079.6 kg/m3
308.15 K, x1 = 0.8382
  mass density: 1080.1 kg/m3
308.15 K, x1 = 0.8693
  mass density: 1080.6 kg/m3
308.15 K, x1 = 1
  mass density: 1082.3 kg/m3
313.15 K, x1 = 0.811
  mass density: 1076.7 kg/m3
313.15 K, x1 = 0.8382
  mass density: 1077.1 kg/m3
313.15 K, x1 = 0.8693
  mass density: 1077.6 kg/m3
313.15 K, x1 = 0.9058
  mass density: 1078.1 kg/m3
313.15 K, x1 = 0.9381
  mass density: 1078.7 kg/m3
313.15 K, x1 = 1
  mass density: 1079.4 kg/m3
318.15 K, x1 = 0.811
  mass density: 1073.8 kg/m3
318.15 K, x1 = 0.8382
  mass density: 1074.3 kg/m3
318.15 K, x1 = 0.8693
  mass density: 1074.8 kg/m3
318.15 K, x1 = 0.9058
  mass density: 1075.3 kg/m3
323.15 K, x1 = 0.8382
  mass density: 1071.6 kg/m3
323.15 K, x1 = 0.8693
  mass density: 1072.1 kg/m3
323.15 K, x1 = 1
  mass density: 1073.8 kg/m3
328.15 K, x1 = 0.811
  mass density: 1068.1 kg/m3
328.15 K, x1 = 0.8382
  mass density: 1068.5 kg/m3
328.15 K, x1 = 0.9058
  mass density: 1069.5 kg/m3
328.15 K, x1 = 0.9381
  mass density: 1070.1 kg/m3
328.15 K, x1 = 1
  mass density: 1070.8 kg/m3

## CCCC[n+]1ccn(C)c1C.NCC(=O)[O-] + O
288.15 K, x1 = 0.8079
  mass density: 1128.4 kg/m3
288.15 K, x1 = 0.8325
  mass density: 1128.9 kg/m3
288.15 K, x1 = 0.874
  mass density: 1129.6 kg/m3
288.15 K, x1 = 0.9108
  mass density: 1130.3 kg/m3
288.15 K, x1 = 0.9415
  mass density: 1130.7 kg/m3
288.15 K, x1 = 1
  mass density: 1131.6 kg/m3
293.15 K, x1 = 0.8325
  mass density: 1125.7 kg/m3
293.15 K, x1 = 0.9108
  mass density: 1127.2 kg/m3
293.15 K, x1 = 0.9415
  mass density: 1127.6 kg/m3
293.15 K, x1 = 1
  mass density: 1128.5 kg/m3
298.15 K, x1 = 0.8079
  mass density: 1121.9 kg/m3
298.15 K, x1 = 0.9415
  mass density: 1124.5 kg/m3
298.15 K, x1 = 1
  mass density: 1125.4 kg/m3
303.15 K, x1 = 0.8079
  mass density: 1118.9 kg/m3
303.15 K, x1 = 0.8325
  mass density: 1119.5 kg/m3
303.15 K, x1 = 0.9415
  mass density: 1121.3 kg/m3
303.15 K, x1 = 1
  mass density: 1122.2 kg/m3
308.15 K, x1 = 0.8079
  mass density: 1115.7 kg/m3
308.15 K, x1 = 0.8325
  mass density: 1116.2 kg/m3
308.15 K, x1 = 0.9108
  mass density: 1117.7 kg/m3
308.15 K, x1 = 0.9415
  mass density: 1118.1 kg/m3
308.15 K, x1 = 1
  mass density: 1119 kg/m3
313.15 K, x1 = 0.8079
  mass density: 1112.4 kg/m3
313.15 K, x1 = 0.8325
  mass density: 1113 kg/m3
313.15 K, x1 = 0.874
  mass density: 1113.8 kg/m3
313.15 K, x1 = 0.9108
  mass density: 1114.5 kg/m3
313.15 K, x1 = 0.9415
  mass density: 1114.9 kg/m3
313.15 K, x1 = 1
  mass density: 1115.9 kg/m3
318.15 K, x1 = 0.8079
  mass density: 1109.3 kg/m3
318.15 K, x1 = 0.8325
  mass density: 1109.7 kg/m3
318.15 K, x1 = 0.874
  mass density: 1110.6 kg/m3
318.15 K, x1 = 0.9108
  mass density: 1111.2 kg/m3
318.15 K, x1 = 0.9415
  mass density: 1111.8 kg/m3
318.15 K, x1 = 1
  mass density: 1112.6 kg/m3
323.15 K, x1 = 0.8079
  mass density: 1106 kg/m3
323.15 K, x1 = 0.8325
  mass density: 1106.6 kg/m3
323.15 K, x1 = 0.9415
  mass density: 1108.6 kg/m3
323.15 K, x1 = 1
  mass density: 1109.5 kg/m3
328.15 K, x1 = 0.8079
  mass density: 1102.8 kg/m3
328.15 K, x1 = 0.8325
  mass density: 1103.3 kg/m3
328.15 K, x1 = 0.9108
  mass density: 1104.8 kg/m3
328.15 K, x1 = 0.9415
  mass density: 1105.5 kg/m3
328.15 K, x1 = 1
  mass density: 1106.4 kg/m3
